# Source: the supplement of paper PMC8728848
# Some of the results follow.
# B1: GS14009A-pdi-495-27-495 (Parabacteroides distasonis) (protein)
# chain: FEEVNTDPDSPTDVPTTNLLAYSLYYTSYRLYDRWFAMDEPMTFCGYASKMTYIDESRYNFRTGVQDTNWEYLYRILNNLKDIEKRATFNETPNMLNVSKVMQVHLMQVATDRWRDVPYTDAAKMTDGILQPKYDKQEDIYPGLLATLKEAADGFADGGSDDLGEGDLLFGGDIEKWQRYCNSMRLRLAMRISEVSPALAKETVEEVMGNPTKYPIMESNDDNAFFWWIGTDPNYYEPMADGYRTRKTEYCAADVIVDHMNTREDPRRSSYFQPTKESVEAGEPKYVGYTIGAKANAVASKYSIWGARFFTDLAGFSPYMRVAEPWFCVAEASMLGWNTGISAEDAYNKAVTYSMEENSVSAEDIADYLANAGKFTNDKKQIYYEEWVAMFKQGMEGWSLYRRTGVPDNLYPAPGRPANYSNHNVPPFRSPYPDKERNLNNANCAPFDAEVVDNLWGKQMWWDTRTGVH
# How the values were obtained:
# Assay in all cases: glycan array binding signal (z-score within array); higher = stronger binding
# Conditions in all cases: glycan notation: IUPAC condensed, linker removed
# [1] = target: Fuc(a1-2)Gal(b1-4)GlcNAc(b1-3)Gal(b1-4)GlcNAc(b1-3)Gal(b1-4)GlcNAc
# Procedure, shortened: (§1)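 Arrays were curated from the Consortium for Functional Glycomics database, 3228 in total, and kept only where the protein sequence was available. Binding is expressed as a within-array Z-score. This score was averaged across arrays of the same protein sequence at different concentrations or buffers and across linkers, and negative values can be read as non-binding.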
# [2] = target: Fuc(a1-2)Gal(b1-4)GlcNAc(b1-3)GalNAc
# Procedure, shortened: as §1
# [3] = target: Fuc(a1-2)Gal(b1-4)GlcNAc(b1-3)[Fuc(a1-2)Gal(b1-4)GlcNAc(b1-6)]GalNAc
# Procedure, shortened: as §1
# [4] = target: Fuc(a1-2)Gal(b1-4)GlcNAc(b1-3)[Fuc(a1-3)[Gal(b1-4)]GlcNAc(b1-6)]Gal(b1-4)Glc
# Procedure, shortened: as §1
# [5] = target: Fuc(a1-2)Gal(b1-4)GlcNAc(b1-6)GalNAc
# Procedure, shortened: as §1
# [6] = target: Fuc(a1-2)Gal(b1-4)GlcNAc6S
# Procedure, shortened: as §1
# [7] = target: Fuc(a1-2)Gal(b1-4)[Fuc(a1-3)]GlcNAc
# Procedure, shortened: as §1
# [8] = target: Fuc(a1-2)Gal(b1-4)[Fuc(a1-3)]GlcNAc(b1-2)Man(a1-3)[Fuc(a1-2)Gal(b1-4)[Fuc(a1-3)]GlcNAc(b1-2)Man(a1-6)]Man(b1-4)GlcNAc(b1-4)[Fuc(a1-6)]GlcNAc
# Procedure, shortened: as §1
# [9] = target: Fuc(a1-2)Gal(b1-4)[Fuc(a1-3)]GlcNAc(b1-2)[Fuc(a1-2)Gal(b1-4)[Fuc(a1-3)]GlcNAc(b1-4)]Man(a1-3)[Fuc(a1-2)Gal(b1-4)[Fuc(a1-3)]GlcNAc(b1-2)Man(a1-6)]Man(b1-4)GlcNAc(b1-4)GlcNAc
# Procedure, shortened: as §1
# [10] = target: Fuc(a1-2)Gal(b1-4)[Fuc(a1-3)]GlcNAc(b1-3)Gal(b1-4)[Fuc(a1-3)]GlcNAc
# Procedure, shortened: as §1
# [11] = target: Fuc(a1-2)Gal(b1-4)[Fuc(a1-3)]GlcNAc(b1-3)Gal(b1-4)[Fuc(a1-3)]GlcNAc(b1-3)Gal(b1-4)[Fuc(a1-3)]GlcNAc
# Procedure, shortened: as §1
# [12] = target: Fuc(a1-2)Gal(b1-4)[Fuc(a1-3)]GlcNAc(b1-3)GalNAc
# Procedure, shortened: as §1
# [13] = target: Fuc(a1-2)Gal(b1-4)[Fuc(a1-3)]GlcNAc(b1-3)[Neu5Ac(a2-6)Gal(b1-4)GlcNAc(b1-6)]Gal(b1-4)Glc
# Procedure, shortened: as §1
# [14] = target: Fuc(a1-2)Gal3S(b1-4)GlcNAc
# Procedure, shortened: as §1
# [15] = target: Fuc(a1-2)Gal6S(b1-3)GlcNAc
# Procedure, shortened: as §1
# [16] = target: Fuc(a1-2)Gal6S(b1-3)GlcNAc6S
# Procedure, shortened: as §1
# [17] = target: Fuc(a1-2)Gal6S(b1-4)Glc
# Procedure, shortened: as §1
# [18] = target: Fuc(a1-2)Gal6S(b1-4)Glc6S
# Procedure, shortened: as §1
# [19] = target: Fuc(a1-2)[Gal(a1-3)]Gal
# Procedure, shortened: as §1
# [20] = target: Fuc(a1-2)[Gal(a1-3)]Gal(b1-3)GalNAc
# Procedure, shortened: as §1
# [21] = target: Fuc(a1-2)[Gal(a1-3)]Gal(b1-3)GalNAc(b1-3)Gal(a1-4)Gal(b1-4)Glc
# Procedure, shortened: as §1
# [22] = target: Fuc(a1-2)[Gal(a1-3)]Gal(b1-3)GlcNAc
# Procedure, shortened: as §1
# [23] = target: Fuc(a1-2)[Gal(a1-3)]Gal(b1-3)GlcNAc(b1-2)Man(a1-3)[Fuc(a1-2)[Gal(a1-3)]Gal(b1-3)GlcNAc(b1-2)Man(a1-6)]Man(b1-4)GlcNAc(b1-4)GlcNAc
# Procedure, shortened: as §1
# [24] = target: Fuc(a1-2)[Gal(a1-3)]Gal(b1-3)GlcNAc(b1-2)Man(a1-3)[Fuc(a1-2)[Gal(a1-3)]Gal(b1-3)GlcNAc(b1-2)Man(a1-6)]Man(b1-4)GlcNAc(b1-4)[Fuc(a1-6)]GlcNAc
# Procedure, shortened: as §1
# [25] = target: Fuc(a1-2)[Gal(a1-3)]Gal(b1-3)GlcNAc(b1-3)GalNAc
# Procedure, shortened: as §1
# [26] = target: Fuc(a1-2)[Gal(a1-3)]Gal(b1-3)GlcNAc(b1-6)GalNAc
# Procedure, shortened: as §1
# [27] = target: Fuc(a1-2)[Gal(a1-3)]Gal(b1-4)Glc
# Procedure, shortened: as §1
# [28] = target: Fuc(a1-2)[Gal(a1-3)]Gal(b1-4)GlcNAc
# Procedure, shortened: as §1
# [29] = target: Fuc(a1-2)[Gal(a1-3)]Gal(b1-4)GlcNAc(b1-2)Man
# Procedure, shortened: as §1
# [30] = target: Fuc(a1-2)[Gal(a1-3)]Gal(b1-4)GlcNAc(b1-2)Man(a1-3)[Fuc(a1-2)[Gal(a1-3)]Gal(b1-4)GlcNAc(b1-2)Man(a1-6)]Man(b1-4)GlcNAc(b1-4)GlcNAc
# Procedure, shortened: as §1
binder,measurement,setting,value
B1,glycan array binding signal (z-score),[1],0.139
same,glycan array binding signal (z-score),[2],-0.559
same,glycan array binding signal (z-score),[3],-0.432
same,glycan array binding signal (z-score),[4],0.001
same,glycan array binding signal (z-score),[5],-0.511
same,glycan array binding signal (z-score),[6],-0.505
same,glycan array binding signal (z-score),[7],-0.617
same,glycan array binding signal (z-score),[8],0.748
same,glycan array binding signal (z-score),[9],0.154
same,glycan array binding signal (z-score),[10],0.196
same,glycan array binding signal (z-score),[11],-0.248
same,glycan array binding signal (z-score),[12],0.954
same,glycan array binding signal (z-score),[13],-0.607
same,glycan array binding signal (z-score),[14],-0.498
same,glycan array binding signal (z-score),[15],-0.571
same,glycan array binding signal (z-score),[16],0.562
same,glycan array binding signal (z-score),[17],-0.521
same,glycan array binding signal (z-score),[18],-0.522
same,glycan array binding signal (z-score),[19],-0.174
same,glycan array binding signal (z-score),[20],0.023
same,glycan array binding signal (z-score),[21],0.04
same,glycan array binding signal (z-score),[22],-0.616
same,glycan array binding signal (z-score),[23],-0.225
same,glycan array binding signal (z-score),[24],0.757
same,glycan array binding signal (z-score),[25],-0.579
same,glycan array binding signal (z-score),[26],-0.13
same,glycan array binding signal (z-score),[27],-0.001
same,glycan array binding signal (z-score),[28],-0.34
same,glycan array binding signal (z-score),[29],-0.091
same,glycan array binding signal (z-score),[30],1.89
